Among all 340,000 compounds or so, about 6,900 (2%) were called active. No stated cut-off is given here; in the data, active means inhibition above about 30%; inactive means below that, where a call was filed. This is a selection; strong and weak results do not stand in their true shares. The source gives no active or inactive call for entries shown without one.
biological target: D(2) dopamine receptor (Homo sapiens) (UniProt P14416); test: HTS Assay for Allosteric Antagonists of the Human D2 Dopamine Receptor: Primary Screen for Antagonists; details: HEK293 TREx D2 cells, calcium flux, dopamine EC80; at 10 µM; stronger effect = higher value; further: 0% is about no effect
Chain of UniProt P14416 (P14416 whole entry, looked up): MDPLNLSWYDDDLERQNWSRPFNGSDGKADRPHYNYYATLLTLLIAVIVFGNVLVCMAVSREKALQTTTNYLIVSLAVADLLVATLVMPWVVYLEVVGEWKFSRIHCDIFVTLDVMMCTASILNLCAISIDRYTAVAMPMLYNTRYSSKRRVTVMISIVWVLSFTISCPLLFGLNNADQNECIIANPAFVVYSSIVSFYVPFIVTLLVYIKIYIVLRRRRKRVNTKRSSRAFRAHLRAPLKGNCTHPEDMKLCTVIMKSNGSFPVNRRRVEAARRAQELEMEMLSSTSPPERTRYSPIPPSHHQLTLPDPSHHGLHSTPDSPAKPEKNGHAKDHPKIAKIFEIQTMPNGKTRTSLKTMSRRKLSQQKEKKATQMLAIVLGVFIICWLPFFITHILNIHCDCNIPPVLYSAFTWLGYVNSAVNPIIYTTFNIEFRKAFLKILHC
Procedure, shortened: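 Measurement of antagonist activity uses fluorescent calcium dye in inducible HEK293 T-REx D2 cells: 10 s baseline, compound addition with 180 s read, EC80 dopamine addition with a further 180 s read.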

| SMILES | inhibition |
| --- | --- |
| Cn1cc(S(=O)(=O)N2CCCCC2)cc1C(=O)NCc1ccc(Cl)cc1 | -25.4% |
| Cc1ccc(N2CCN(S(=O)(=O)c3cc(Br)cc4c3N(C(=O)C3CC3)CC4)CC2C)cc1 (configuration not stated) | 7.09% |
| CCCCSc1nnc2c(n1)OC(c1ccc(C)s1)Nc1ccccc1-2 (configuration not stated) | -11% |
| CSc1cccc(NC(=O)/C=C/c2ccc(Cl)cc2)c1 | active: 69.8% |
| COc1ccc(NS(=O)(=O)c2cc(NC(=O)CCNC(C)=O)ccc2N2CCCCC2)cc1 | active: 36.8% |
| CCC(Sc1nc2cc3c(cc2c(=O)n1CCCC(=O)NCc1ccc2c(c1)OCO2)OCO3)C(=O)NCCCOC (configuration not stated) | 13.6% |
| CCC(=O)N1c2ccc(S(=O)(=O)N3CCCCCC3)cc2CC1C (configuration not stated) | 2.76% |
| Nc1c(-c2nc(-c3ccccc3Cl)no2)nnn1-c1ccccc1F | -9.49% |
| Cc1ccc(NC(=O)COc2ccc(-c3nn(C)c(=O)c4ccccc34)cc2)c(C)c1 | 20% |
| COC(=O)c1cc2oc3ccccc3c2n1CC(=O)Nc1ccc(N(C)C)cc1 | -1.94% |
| COC(=O)c1cc(NC(=O)CC2SCCNC2=O)cc(C(=O)OC)c1 (configuration not stated) | active: 34.9% |
| O=C(Cn1cc(S(=O)(=O)Cc2ccccc2Cl)c2ccccc21)Nc1cccc(C(F)(F)F)c1 | -8.09% |
| Cc1nc2nc(C)c(CCC(=O)NCCc3ccccc3)c(C)n2n1 | -0.558% |
| CC(COc1ccccc1)N1CCC(CO)(Cc2ccccc2)CC1 (configuration not stated) | active: 85.2% |
| Cc1ccc(S(=O)(=O)N(CC(=O)Nc2c(C)cccc2C)c2cccc(Cl)c2)cc1 | 2.47% |
| CC(C)Oc1cccc(C(=O)Nc2ccc3oc(-c4ccccc4)nc3c2)c1 | -3.72% |
| Cc1ccc2nc(CN3CCN(S(=O)(=O)c4ccccc4)CC3)oc2c1 | 10.8% |
| Cc1cc(C)c(S(=O)(=O)Nn2cnnc2)c(C)c1 | active: 31.9% |
| CCOc1ccc(C(NC(=O)c2cc(OC)c(OC)c(OC)c2)c2cc(Cl)c3cccnc3c2O)cc1 (configuration not stated) | 3.52% |
| COC(=O)c1cc(C)nc2c1c(=O)nc(SCc1c(C)cc(C)cc1C)n2C1CC1 | -5.33% |
| CCc1ccc(NC(=O)CSc2nc3ccccc3c(=O)n2CCC(=O)NC2CCCCC2)cc1 | -21.9% |
| CCC(C)c1ccccc1OCCCN(C)Cc1ccccc1 (configuration not stated) | active: 34.6% |
| CN=c1scc(-c2cccs2)n1/N=C/c1ccc(O)c(O)c1O | active: 89.3% |
| Cc1nnc(SCC(N)=O)n1CC1CCCO1 (configuration not stated) | active: 32.8% |
| COc1ccc(C2c3c(-c4ccc(F)cc4)n[nH]c3C(=O)N2c2ccccc2)cc1OC (configuration not stated) | 16.8% |

| SMILES | inhibition |
| --- | --- |
| CCOc1ccc(CCNC(=O)c2cc3c(-c4ccccc4F)nn(C)c3s2)cc1OCC | -7.75% |
| CCOC(=O)c1ccc(NC(=O)c2ccc(-c3cccc(Cl)c3C)o2)cc1 | -8.85% |
| COc1ccc(C2c3c(oc4ccccc4c3=O)C(=O)N2c2nc(C)c(C)s2)cc1 (configuration not stated) | -10.5% |
| O=c1c2oc3ccccc3c2ncn1Cc1ccc(Br)cc1 | 22.9% |
| COc1ccc(OC)c2sc(N(CCCN(C)C)C(=O)c3ccco3)nc12 | -19.8% |
| CCCCCCSc1ccc(-c2nc3ccc(C)cn3c2NCc2ccccc2)cc1 | active: 34.2% |
| O=C(COc1ccccc1)Nc1ccc2nc(SCC(=O)N3CCCC3)sc2c1 | 5.88% |
| COc1ccc(C2CC(=O)Oc3c2c(=O)n(C)c2ccccc32)c(OC)c1OC (configuration not stated) | -5.51% |
| CCOc1ccc(NC(=O)CS(=O)(=O)Cc2nc(-c3ccc(C)cc3)oc2C)cc1 | 7.04% |
| O=C(CSc1nc2c(c(=O)[nH]1)CCCC2)Nc1ccc(Br)cc1 | 13.3% |
| COc1ccc(CNc2cc(-c3ccc(OC)cc3)nc3nncn23)cc1 | -2.85% |
| COc1ccccc1N1CCN(Cc2c[nH]c3ccccc23)CC1 | active: 48% |
| O=C(Cc1cccs1)NCc1ccncc1 | active: 58% |
| Cc1ccc(NC(=O)C(c2ccccc2)N2Cc3ccccc3C2=O)cc1Cl (configuration not stated) | -14.5% |
| Cc1ccc(C)c(N2CCN(c3nc4ccccc4n4c(C)nnc34)CC2)c1 | -11.7% |
| COc1ccc(NC(=O)CC2C(=O)N(c3ccc(C)cc3)C(=O)N2Cc2cccnc2)cc1 (configuration not stated) | 3.8% |
| CCOC(=O)N1CCC2(CC1)OC(=O)C(C)=C2C(=O)NCc1cccc(OC)c1 | 1.21% |
| Cn1c(=O)n(-c2cccc(Cl)c2)c(=O)c2sc3ccccc3c21 | -2.54% |
| CCCS(=O)(=O)N1CC(=O)N(c2ccccc2C)C(C)(C(=O)NC2CCCC2)C1 (configuration not stated) | 5.06% |
| COC(=O)c1ccc(C2C(Oc3ccccc3)C(=O)N2CCc2ccc(F)cc2)cc1 (configuration not stated) | active: 36.3% |
| CNC(=O)c1sc2ncccc2c1-n1cccc1 | 15.5% |
| CCCCN1C(=O)CN(C2CCCCC2)C(=O)C1c1ccc(OC(C)C)c(OC)c1 (configuration not stated) | -0.354% |
| Cc1cccc(-n2ncc(C(=O)NCc3ccccn3)c2C2CCN(C(=O)OC(C)(C)C)CC2)c1 | -4.18% |
| CCN1CCN(Cc2c(O)ccc3c(C)c(-c4ccccc4)c(=O)oc23)CC1 | 9.37% |
| COC(=O)NCc1c(C)nn(-c2ccccc2)c1-n1cccc1 | -11.4% |

| SMILES | inhibition |
| --- | --- |
| COc1cc(O)c(C(CCN2CCN(c3ccccc3)CC2)c2ccc(N(C)C)cc2)c(OC)c1 (configuration not stated) | active: 32.1% |
| Cc1ccc(C)c(NC(=O)C(=O)NCCc2csc3nc(-c4ccccc4C)nn23)c1 | 11.7% |
| CCOC(=O)c1oc2c(c1C)-c1nn(Cc3ccccc3Cl)cc1CC2 | -8.35% |
| CCc1ccccc1NC(=O)CN1C(=O)c2cccnc2Oc2ccc(Cl)cc21 | -20.5% |
| CCOc1ccc(Br)cc1CNCCSc1nnnn1-c1ccccc1 | -4.31% |
| CC(C)(C)OC(=O)N1CCC(c2c(C(=O)Nc3ccc4c(c3)OCCO4)cnn2-c2ccccc2)CC1 | -2.55% |
| CCc1ccc(NC(=O)c2nn(-c3ccc(C)cc3)c(=O)n(C)c2=O)cc1 | -5.6% |
| C=C(C)C(=O)Nc1cccc(C2=NOC3(C2)C[C@H](C(N)=O)N(C(=O)COc2ccc(Cl)cc2)C3)c1 (some centres not stated) | active: 35% |
| Cc1ccc(S(=O)(=O)c2nc(-c3ccco3)oc2SCC(C)C)cc1 | 2.3% |
| COc1cc(OC)c(NC(=O)Cn2cnc3sc(C)c(S(=O)(=O)N4CCN(C)CC4)c3c2=O)cc1Cl | 20.5% |
| COc1ccc2ncc3c(-c4ccc(C)c(C)c4)nn(CC(=O)NC4CCCCC4)c3c2c1 | 6.84% |
| COc1ccc(C(=O)N2CCC(N3CCN(c4ccccc4)CC3)CC2)cc1 | active: 57.1% |
| O=C(COCc1cc(-c2cccs2)on1)Nc1ccc(OC(F)(F)F)cc1 | -0.962% |
| Cc1cc2c(cc1C)NC(CC(=O)Nc1ccccc1SC(F)(F)F)C(=O)N2 (configuration not stated) | 11% |
| CCCCOc1ccc(NC(=O)Cn2nnnc2-c2ccccc2F)cc1 | -23.1% |
| CN(C)c1ccc(CN(CC2CCCO2)C(=O)c2ccc(Br)cc2)cc1 (configuration not stated) | 5.66% |
| CCOc1ccc(N2C(=O)N(Cc3c(F)cccc3Cl)c3ccccc3S2(=O)=O)cc1 | -21% |
| Cc1ccc2[nH]c3c(=O)n(CC(=O)N4CCN(c5cccc(C(F)(F)F)c5)CC4)ncc3c2c1 | -4.14% |
| COc1cccc(CNC(=O)CN2C(=O)CSc3c2c(C)nn3-c2ccccc2)c1 | 2.62% |
| Cc1ccc2[nH]c(CSc3nnc(COc4ccccc4C)n3C)cc(=O)c2c1 | -0.444% |
| Cc1ccc(-n2c(=O)c3ccc(C(=O)NCc4ccccc4Cl)cc3n(CC(=O)Nc3cccc(F)c3)c2=O)cc1 | -3.9% |
| CCc1cc2c(cc3c(=O)n(CC(=O)N4CCCCC4)ncn32)s1 | 4.63% |
| CCOc1ccc2nc(N3CCCC(C(=O)Nc4cccc(Cl)c4C)C3)sc2c1 (configuration not stated) | 9.33% |
| CCCCN(CCCC)CCNC(=O)c1cc(-c2cccnc2)nc2ccc(S(=O)(=O)N3CCC(C)CC3)cc12 | -11.7% |
| O=C(Cc1ccc(NC(=O)N2CCCCc3ccccc32)cc1)NCc1ccccc1 | 14.3% |

| SMILES | inhibition |
| --- | --- |
| COc1ccccc1CNC(=O)c1ccc(-c2nc(CS(=O)c3ccccc3)c(C)o2)cc1 (configuration not stated) | -8.52% |
| CCCCn1cc(S(=O)(=O)c2ccc(F)cc2)c(=O)c2ccccc21 | 0.214% |
| Cc1ccc(Cl)cc1NC(=O)CN1C(=O)COc2ccc(S(=O)(=O)N3CCOCC3)cc21 | -6.12% |
| COc1ccc(Cn2c(SCC(N)=O)nc3c(sc4ccccc43)c2=O)cc1 | -2.38% |
| Cc1cnc2c(c1SCC(=O)Nc1ccc(F)cc1F)c(=O)n(C)c(=O)n2C | 1.16% |
| Cc1cc(F)ccc1NC(=O)C1CCCN(S(=O)(=O)c2ccc3c(c2)CCCC(=O)N3)C1 (configuration not stated) | 3.01% |
| COc1ccc(S(=O)(=O)c2c(Nc3ccc(C)cc3)sc(C(=O)c3ccc4c(c3)OCO4)c2N)cc1 | 20.2% |
| COc1ccc(N(Cc2cccs2)C(=O)COc2ccc(C(C)C)cc2)cc1 | 5.42% |
| COc1ccc(C(=O)CCC(=O)Nc2ccc(OC)c(Cl)c2)cc1 | 4.71% |
| CCOC(=O)c1[nH]c2c(c1Cc1ccccc1OC)C(=O)CC(c1ccc(OCC)cc1)C2 (configuration not stated) | -13.5% |
| COc1ccc(C2=CC(c3cccc(C)c3)n3nnnc3N2)cc1 (configuration not stated) | -7.46% |
| COc1cc(NC(=O)Cn2nc(-c3ccc(C)c(C)c3)ccc2=O)cc(OC)c1 | 1.04% |
| CCOC(=O)c1c(C)oc2nc(C)nc(NCCc3ccc(SC)cc3)c12 | -17.6% |
| CC(C)NC(=O)c1ccccc1NC(=O)c1nsc2ccccc12 | -18.3% |
| COc1ccccc1N1CCN(c2nc3ccc(C)cc3n3nnnc23)CC1 | 0.194% |
| Cc1nn2c(=O)cc(COC(=O)c3cccc(NC(=O)c4ccc(C(C)(C)C)cc4)c3)nc2s1 | -8.49% |
| COc1ccc2oc(C(=O)OCC(=O)N3CCCCC3)c(C)c2c1 | active: 31.3% |
| COc1ccc(N=C2S/C(=C\c3ccco3)C(=O)N2CC(C)C)cc1 | active: 35.6% |
| O=C(COC(=O)c1cccc(NC(=O)c2ccc(Br)cc2)c1)c1ccc(Br)cc1 | -6.94% |
| COc1cccc(C(=O)Nc2ccc3nc(N4CCC(C)CC4)cc(C)c3c2)c1 | 9.86% |
| CCOC(=O)N1CCC(NCCNC(=O)c2ccc(F)c(F)c2)CC1 | active: 59.1% |
| COc1cccc(C(=O)Nc2ccccc2-c2nnc(-c3cc(OC)ccc3Br)o2)c1 | -5.5% |
